MIC of clinical N. gonorrhoeae isolates (2015-2017) by agar dilution on GC agar with 1% IsoVitaleX (ranges not stated); higher = less susceptible. No active / inactive call per row; the paper counts benzylpenicillin above 1 and ceftriaxone above 0.125 mg/L as resistant (EUCAST). The method is stated for benzylpenicillin and ceftriaxone and assumed for the other drugs. '<=' is inferred from pile-ups at the end values. Isolates are numbered anew.
Assays:
Assay in all cases: Agar dilution on enriched GC agar; resistance determinants by microarray.
benzylpenicillin = compound: CC1(C)S[C@@H]2[C@H](NC(=O)Cc3ccccc3)C(=O)N2[C@H]1C(=O)O [benzylpenicillin]
spectinomycin = compound: CN[C@@H]1[C@H](O)[C@H](NC)[C@H]2O[C@@]3(O)C(=O)C[C@@H](C)O[C@H]3O[C@@H]2[C@H]1O [spectinomycin]
tetracycline = compound: CN(C)[C@@H]1C(O)=C(C(N)=O)C(=O)[C@@]2(O)C(O)=C3C(=O)c4c(O)cccc4[C@@](C)(O)[C@H]3C[C@@H]12 [tetracycline]
azithromycin = compound: CC[C@H]1OC(=O)[C@H](C)[C@@H](O[C@H]2C[C@@](C)(OC)[C@@H](O)[C@H](C)O2)[C@H](C)[C@@H](O[C@@H]2O[C@H](C)C[C@H](N(C)C)[C@H]2O)[C@](C)(O)C[C@@H](C)CN(C)[C@H](C)[C@@H](O)[C@]1(C)O [azithromycin]
ceftriaxone = compound: CO/N=C(\C(=O)N[C@@H]1C(=O)N2C(C(=O)O)=C(CSc3nc(=O)c(O)nn3C)CS[C@H]12)c1csc(N)n1 [ceftriaxone]

Row | Test System | MIC (benzylpenicillin) | MIC (spectinomycin) | MIC (tetracycline) | MIC (azithromycin) | MIC (ceftriaxone)
1 | Neisseria gonorrhoeae isolate 494 (blaTEM plasmid: no, gyrA: Phe91, Asn 95, mtrR promoter: wild type, parC: Ser87, Gly 91, penA: ins345Asp, ponA: Pro421, porB: wild type, rpsJ: Met57, tetM plasmid: no) | 0.25 µg/mL | 32 µg/mL | 1 µg/mL | 0.25 µg/mL | 0.008 µg/mL
2 | Neisseria gonorrhoeae isolate 118 (blaTEM plasmid: no, gyrA: Thr91, Gly95, mtrR promoter: wild type, parC: wild type, penA: wild type, ponA: wild type, porB: Asn120, Asp121, rpsJ: wild type, tetM plasmid: no) | 0.06 µg/mL | 16 µg/mL | 2 µg/mL | 0.5 µg/mL | 0.008 µg/mL
3 | Neisseria gonorrhoeae isolate 361 (blaTEM plasmid: no, gyrA: wild type, mtrR promoter: wild type, parC: wild type, penA: wild type, ponA: wild type, porB: wild type, rpsJ: wild type, tetM plasmid: no) | ≤ 0.015 µg/mL | 16 µg/mL | 0.12 µg/mL | 0.06 µg/mL | ≤ 0.002 µg/mL
4 | Neisseria gonorrhoeae isolate 391 (blaTEM plasmid: no, gyrA: Phe91, Ala 95, mtrR promoter: wild type, parC: wild type, penA: ins345Asp, ponA: Pro421, porB: wild type, rpsJ: Met57, tetM plasmid: no) | 0.5 µg/mL | 16 µg/mL | 2 µg/mL | 0.06 µg/mL | 0.004 µg/mL
5 | Neisseria gonorrhoeae isolate 101 (blaTEM plasmid: no, gyrA: wild type, mtrR promoter: wild type, parC: Arg87, Glu91, penA: ins345Asp, ponA: Pro421, porB: Asp120, Ala121, rpsJ: Met57, tetM plasmid: no) | 0.25 µg/mL | 16 µg/mL | 1 µg/mL | 0.12 µg/mL | 0.004 µg/mL
6 | Neisseria gonorrhoeae isolate 363 (blaTEM plasmid: no, gyrA: wild type, mtrR promoter: wild type, parC: wild type, penA: wild type, ponA: wild type, porB: wild type, rpsJ: wild type, tetM plasmid: no) | ≤ 0.015 µg/mL | 32 µg/mL | 0.25 µg/mL | 0.25 µg/mL | ≤ 0.002 µg/mL
7 | Neisseria gonorrhoeae isolate 386 (blaTEM plasmid: no, gyrA: wild type, mtrR promoter: wild type, parC: wild type, penA: ins345Asp, ponA: wild type, porB: wild type, rpsJ: wild type, tetM plasmid: no) | 0.06 µg/mL | 16 µg/mL | 0.12 µg/mL | 0.002 µg/mL | ≤ 0.002 µg/mL
8 | Neisseria gonorrhoeae isolate 250 (blaTEM plasmid: no, gyrA: wild type, mtrR promoter: wild type, parC: wild type, penA: wild type, ponA: wild type, porB: wild type, rpsJ: wild type, tetM plasmid: no) | ≤ 0.015 µg/mL | 4 µg/mL | 0.03 µg/mL | 0.06 µg/mL | ≤ 0.002 µg/mL
9 | Neisseria gonorrhoeae isolate 438 (blaTEM plasmid: no, gyrA: Phe91, Gly95, mtrR promoter: wild type, parC: Arg87, Glu91, penA: ins345Asp, ponA: Pro421, porB: Asp120, Ala121, rpsJ: Met57, tetM plasmid: no) | 1 µg/mL | 32 µg/mL | 0.5 µg/mL | 0.015 µg/mL | 0.004 µg/mL
10 | Neisseria gonorrhoeae isolate 50 (blaTEM plasmid: no, gyrA: Thr91, Gly95, mtrR promoter: wild type, parC: wild type, penA: wild type, ponA: wild type, porB: wild type, rpsJ: wild type, tetM plasmid: yes) | 0.06 µg/mL | 32 µg/mL | 8 µg/mL | 0.06 µg/mL | 0.004 µg/mL
11 | Neisseria gonorrhoeae isolate 160 (blaTEM plasmid: no, gyrA: Phe91, Asn95, mtrR promoter: wild type, parC: wild type, penA: ins345Asp, ponA: Pro421, porB: Asp120, Gly121, rpsJ: Met57, tetM plasmid: no) | 0.06 µg/mL | 16 µg/mL | 4 µg/mL | 0.03 µg/mL | ≤ 0.002 µg/mL
12 | Neisseria gonorrhoeae isolate 231 (blaTEM plasmid: no, gyrA: Phe91, Asn95, mtrR promoter: -35delA, parC: Arg87, Glu91, penA: ins345Asp, ponA: Pro421, porB: wild type, rpsJ: Met57, tetM plasmid: no) | 0.5 µg/mL | 16 µg/mL | 1 µg/mL | 0.5 µg/mL | 0.008 µg/mL
13 | Neisseria gonorrhoeae isolate 104 (blaTEM plasmid: yes, gyrA: Phe91, Asp95, mtrR promoter: wild type, parC: Asn 87, Lys91, penA: ins345Asp, ponA: Pro421, porB: Lys 120, Gly121, rpsJ: Met57, tetM plasmid: yes) | 16 µg/mL | 16 µg/mL | 32 µg/mL | 0.03 µg/mL | 0.008 µg/mL
14 | Neisseria gonorrhoeae isolate 371 (blaTEM plasmid: no, gyrA: Phe91, Gly95, mtrR promoter: wild type, parC: Arg87, Glu91, penA: ins345Asp, ponA: Pro421, porB: Asp120, Ala121, rpsJ: Met57, tetM plasmid: no) | 0.25 µg/mL | 32 µg/mL | 1 µg/mL | 0.008 µg/mL | 0.004 µg/mL
15 | Neisseria gonorrhoeae isolate 490 (blaTEM plasmid: yes, gyrA: Phe91, Asp95, mtrR promoter: wild type, parC: wild type, penA: ins345Asp, ponA: wild type, porB: wild type, rpsJ: Met57, tetM plasmid: yes) | ≥ 32 µg/mL | 16 µg/mL | 16 µg/mL | 0.12 µg/mL | ≤ 0.002 µg/mL
16 | Neisseria gonorrhoeae isolate 115 (blaTEM plasmid: no, gyrA: Phe91, Asn95, mtrR promoter: -35delA, parC: wild type, penA: ins345Asp, ponA: Pro421, porB: Asn120, Asp121, rpsJ: Met57, tetM plasmid: no) | 1 µg/mL | 16 µg/mL | 1 µg/mL | 0.25 µg/mL | 0.008 µg/mL
17 | Neisseria gonorrhoeae isolate 403 (blaTEM plasmid: no, gyrA: Phe91, Gly95, mtrR promoter: -35delA, parC: Arg87, Glu91, penA: ins345Asp, ponA: Pro421, porB: Lys 120, Asn 121, rpsJ: Met57, tetM plasmid: no) | 0.5 µg/mL | 32 µg/mL | 2 µg/mL | 0.03 µg/mL | 0.016 µg/mL
18 | Neisseria gonorrhoeae isolate 210 (blaTEM plasmid: no, gyrA: Phe91, Gly95, mtrR promoter: -35delA, parC: Arg87, Glu91, penA: ins345Asp, ponA: Pro421, porB: wild type, rpsJ: Met57, tetM plasmid: no) | 0.5 µg/mL | 16 µg/mL | 2 µg/mL | 0.25 µg/mL | 0.008 µg/mL
19 | Neisseria gonorrhoeae isolate 125 (blaTEM plasmid: no, gyrA: wild type, mtrR promoter: -35delA, parC: Arg87, Glu91, penA: ins345Asp, ponA: wild type, porB: wild type, rpsJ: Met57, tetM plasmid: no) | 0.12 µg/mL | 32 µg/mL | 0.5 µg/mL | 0.12 µg/mL | ≤ 0.002 µg/mL
20 | Neisseria gonorrhoeae isolate 111 (blaTEM plasmid: no, gyrA: wild type, mtrR promoter: wild type, parC: wild type, penA: ins345Asp, ponA: wild type, porB: wild type, rpsJ: wild type, tetM plasmid: no) | 0.06 µg/mL | 32 µg/mL | 0.5 µg/mL | 0.015 µg/mL | 0.004 µg/mL

From the supplement of paper PMC6657886
